From PubChem BioAssay AID1963576 (National Center for Advancing Translational Sciences (NCATS), 2024)
The campaign covered roughly 46,000 compounds. About 60 (0.1%) were called active. Not shown: some 3% with an inconclusive outcome. The call rests on the fitted dose curve; in most records, active means well fitted inhibition curve with a large enough effect; inconclusive means small, poorly fitted or top-dose-only effect; inactive means no such curve, though single readings can be large or run the other way. The list shows a part of the results.

experiment: Primary qHTS assay for Inhibitors of ovarian cancer metastasis using an organotypic tumor microenvironment (TME) model.; further: nearly all actives have a fitted effect of over 65% in size;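 on activity change, negative = inhibition: plate controls were DMSO wells for no effect and tomatine positive control wells for full effect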; conditions: SKOV3ip1-GFP adhesion/invasion on 3D omental model, fluorescence; series mostly up to 45.8 µM; activity change, negative = inhibition: at the top concentration
Outline: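 Primary human omental fibroblast/mesothelial 3D culture pre-formed 48 h. SKOV3ip1-GFP cells added with compounds (0.36-46 umol/L), incubated 2 h RT/16 h 37 C, fixed; GFP cells quantified at 488/509 nm.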

outcome, inactive:
CCOc1ccc(N(CC(=O)Nc2ccc(OC)cc2)S(=O)(=O)c2ccc(Cl)cc2)cc1, CCOC(=O)c1[nH]c2c(c1Cc1ccccc1)C(=O)CC(c1ccccc1)C2 (stereo not given), CCOC(=O)c1ccccc1NC(=O)N1CCC(CN2CCOCC2)CC1, Cc1ccc2c(c1)cc1c(=O)n(Cc3ccccc3Cl)nc(C)n12, CCOC(=O)Cc1ccc(NC(=O)NC(C)c2c(-n3cccc3)sc(C)c2C)cc1 (stereo not given), O=C(c1cccc([N+](=O)[O-])c1)N1CCN(c2ccc(Nc3ccccc3)nn2)CC1, CCOc1ccc(NC(=O)CCCn2c(C)c3cnn(-c4ccccc4)c(=O)c3c2C)cc1, CCn1nc(C)c2c(-c3ccccc3)cc(=O)n(C(C)C(=O)NCCc3ccc(Cl)cc3)c21 (stereo not given), CN(C)S(=O)(=O)N1CCC(n2c(C(F)(F)F)nc3cccnc32)CC1, COc1ccc2c(c1)c1c(c(=O)n(CCc3ccccc3)c(=O)n1Cc1cccc(F)c1)n2C, CC(C)CN(CCNC(=O)CCN1N=C(c2ccccc2)CCC1=O)CC(C)C, CCc1cccc(C)c1NC(=O)CSc1nc2ccccc2nc1Cc1ccccc1, COc1ccc(CCNC(=O)CN(c2ccccc2)S(=O)(=O)N(C)C)cc1OC, COC(=O)CC1Oc2ccccc2-n2cc(-c3ccc(F)cc3)nc21 (stereo not given), CCOC(=O)c1c(NC(=O)c2cc(-c3ccc(OC)c(OC)c3)on2)sc2c1CCCC2, Cc1ccc(Cl)cc1-n1nnc(-c2nc(-c3ccc4c(c3)OCO4)no2)c1C, CCC(=O)N1c2ccc(S(=O)(=O)CCC(=O)Nc3ccc(OC)cc3OC)cc2CC1C (stereo not given), O=C(CCNS(=O)(=O)c1ccc2c(c1)CCN2C(=O)C1CC1)N1CCN(c2cccc(Cl)c2)CC1, COc1ccc(-c2nc(CS(=O)CC(=O)NCCc3ccc(Cl)cc3)c(C)o2)cc1OC (stereo not given), CN1C(=O)C2(c3ccccc31)N(c1cccc(C(F)(F)F)c1)C(=O)CS2(=O)=O (stereo not given), Oc1c(C(c2ccc(F)cc2)N2CCN(Cc3ccccc3)CC2)sc2nc(-c3ccco3)nn12 (stereo not given), Cc1cccc(-c2nc3nc(C)cc(NC(C)c4ccccc4)n3n2)c1 (stereo not given), COc1ccc(C(=O)N(Cc2ccco2)Cc2ccc(C)o2)cc1, COc1ccc(NC(=O)C2CCCN(S(=O)(=O)c3c(C)[nH]c(=O)[nH]c3=O)C2)c(OC)c1 (stereo not given), CCOc1ccc(NC(=O)Cn2nnc(-c3nc(-c4ccncc4)no3)c2N)cc1, CCCOc1ccc(C(=O)Nc2cc3c(cc2N2CCCCC2)n(C)c(=O)n3C)cc1

Activity change, negative = inhibition, inactive:
CCN1CCN(C(c2ccccc2Cl)c2sc3nc(-c4ccco4)nn3c2O)CC1 (stereo not given) -1.04%, CCOc1ccc(NC(=O)Cn2nc3c(cc2=O)CC(C)CC3)cc1 (stereo not given) 4.23%, CCn1c(=O)c2sccc2n2c(CCC(=O)Nc3ccc(F)cc3)nnc12 -4.24%, COc1ccc2c(c1)c(N1CCCC1=O)c(C(=O)Nc1cc(C)c(Cl)cc1OC)n2C -9.61%, CCN(c1ccccc1)S(=O)(=O)c1nnc(NC(=O)C2CCCCC2)s1 -2.45%, O=C(Nc1ccc(Br)cc1)c1cc(S(=O)(=O)NC2CCCC2)ccc1F 3.27%, O=C(CCSCCc1ccccn1)Nc1ccc(Cl)cc1 0.898%, Cc1ccc2c(C)c(C(=O)N(Cc3ccc(N(C)C)cc3)Cc3ccco3)oc2c1C 0.75%, Cc1ccc(C)c(Cn2c(=O)n(-c3ccccc3)c(=O)c3c4c(sc32)CCCC4)c1 -18.5%, Cc1cc2oc(=O)c(CC(=O)O)c(C)c2c2occ(-c3ccccc3)c12 -0.551%, COc1ccc(CCN2C(=O)N(c3cccc(OC)c3)C(=O)C2CC(=O)Nc2ccccc2)cc1 (stereo not given) 11%, CCOC(=O)c1c(C)[nH]c(CCC(=O)NCc2cc(OC)c(OC)c(OC)c2)c1C -6.4%, Oc1c(C(c2ccccc2)N2CCCC2)sc2nc(-c3ccco3)nn12 (stereo not given) -6.16%, COc1ccc(-c2onc(C)c2C)cc1S(=O)(=O)NCCc1ccccc1 4.07%, COc1ccc(CNC(=O)CN2C(=O)CCn3nc(-c4cn(C)c5ccccc45)cc32)cc1 7.52%, CCNC(=O)CC1C(=O)N(c2ccc(C)cc2)C(=O)N1CCOC (stereo not given) -8.92%, CCOC(=O)c1c(S(=O)(=O)N2CCC(C(=O)Nc3ccc(C)c(Cl)c3)CC2)c(C)n(C)c1C 1.89%, COc1nnc(-c2ccc(N3CCCCC3)c(NC(=O)c3ccc(C)cc3)c2)c2ccccc12 28.6%, O=C(c1ccc2c(c1)N(Cc1cccc(Cl)c1)C(=O)c1ccccc1S2=O)N1CCC(Cc2ccccc2)CC1 (stereo not given) 2.82%, COc1ccc(OC)c(NC(=O)CSC2=Nc3ccccc3C3=NC(CC(=O)NCCc4ccccc4)C(=O)N23)c1 (stereo not given) 5.59%, CCOc1cccc(CNCCCSc2nnnn2C)c1 3.81%, O=S(=O)(c1ccc(-c2cnc(C3CC3)o2)cc1)N1CCN(c2ccc(F)cc2)CC1 0.82%, CCc1ccc(-c2cn3nc(CC)sc3n2)cc1 -22.2%, COc1ccccc1CNC(=O)Cn1cc2c(n1)-c1c(oc(C(=O)N3CCOCC3)c1C)CC2 -0.148%, COC(=O)c1sccc1S(=O)(=O)N(CC(=O)Nc1cccc(C)c1C)c1ccc(C)c(C)c1 -42.9%, Cc1cccc(NC(=O)CSC2=Nc3ccccc3C3=NC(CCC(=O)NCc4ccco4)C(=O)N23)c1 (stereo not given) 19.7%, COc1cc(OC)c(NC(=O)Cn2ncn3c(cc4cc(C)ccc43)c2=O)cc1Cl 2.6%, Cn1cc(C=C2C(=O)Nc3cccnc32)c2ccccc21 3.86%, CC(C)(C)OC(=O)N1CCC(c2c(C(=O)N3CCN(Cc4ccccc4)CC3)cnn2-c2cccc(Cl)c2)CC1 -4.96%, COc1ccc(Cn2c(CO)cnc2SCc2ccc(C)cc2)cc1 4.44%, CCSc1nc2ccccc2c(OCc2ccc(Cl)cc2)c1C(=O)OC 2.58%, Cc1ccc(-c2onc(C)c2C)cc1S(=O)(=O)Nc1ccccn1 6.08%, COc1ccc2c(C)c(CC(=O)NCc3ccccc3Cl)c(=O)oc2c1OC 6.27%, COc1ccc(-c2nc3cc(NC(=O)COc4ccccc4C)ccc3o2)cc1 0.408%, CC(=O)N1CCC(N(CCCOC(C)C)C(=O)Nc2ccc(C)c(C)c2)CC1 3.8%, Cc1ccc(NC(=O)c2oc3ccc(S(=O)(=O)N4CCC5(CC4)OCCO5)cc3c2C)cc1Cl -5.41%, CCOC(=O)C(C)NC(=O)c1c2c(nc3ccccc13)C(=O)N(C1CCCCC1)C2 (stereo not given) -9.99%, COc1cc(C(c2c(C)[nH][nH]c2=O)c2c(C)[nH][nH]c2=O)ccc1OC(=O)c1ccccc1OC 4.35%, O=C(CN1C(=O)CCSc2ccc(S(=O)(=O)N3CCCC3)cc21)Nc1cccc(F)c1 27.9%, CCc1c(C)sc2c1CCN(Cc1ccc(C#N)cc1)C2c1ccccc1 (stereo not given) -1.17%, Cc1cccc(N(C)S(=O)(=O)c2cc(-c3cnc(C4CC4)o3)ccc2C)c1 -4.07%, COc1ccc(Nc2nn3c(=O)c4cc5c(cc4nc3s2)OCO5)c(OC)c1 4.08%, CCc1ccc(C2c3c(-c4ccccc4O)n[nH]c3C(=O)N2Cc2cccnc2)cc1 (stereo not given) 2.85%, CC(C)CCNC(=O)C1CCN(C(=O)c2cc3sccc3n2Cc2ccc(Cl)cc2)CC1 4.4%, CCc1ccc(-n2nc(CO)c(C(=O)NC)n2)cc1 6.82%, CCN1CCN(c2ncc3c(n2)CCN(Cc2ccccc2C)C3)CC1 1.22%, CCC(=O)N1CCc2cc(CNS(=O)(=O)c3ccc(CC(C)C)cc3)ccc21 5.39%, CCCCNC(=O)CCCN1C(=O)c2ccccc2Sc2ncccc21 7.79%, CCCS(=O)(=O)N1CC(=O)N(c2ccc(C)c(Cl)c2)C(C)(C(=O)NC2CCCCCC2)C1 (stereo not given) -10.9%, COc1cc(CN(C(=O)c2ccccc2F)C2CCS(=O)(=O)C2)cc(OC)c1OC (stereo not given) 12.5%, Cc1ccc2c(CC(=O)Nc3ccc(S(=O)(=O)N4CCCCC4)cc3)coc2c1C -7.05%, Cc1cccc(N2CCN(C(=O)Cn3c(-c4cccs4)cc4ccccc43)CC2)c1C 3.03%, CNC(=O)c1c(NC(=O)/C=C/c2ccccc2)sc2c1CCC2 -5.73%, COCCCNC(=O)c1cnc2sc(N3CCCCC3)nn2c1=O 1.88%, Cc1ccc2nc(-c3ccc(NC(=O)COc4ccc(Br)cc4Br)cc3)sc2c1 1.38%, COc1cc(NS(=O)(=O)c2ccc(NC(=O)c3ccc(Cl)cc3Cl)cc2)nc(OC)n1 -0.589%, O=C(NCc1ccc(F)cc1)C(=O)NCC(c1ccc2c(c1)OCO2)N1CCOCC1 (stereo not given) -7.66%, CCOC(=O)c1ccc(NC(=O)CC(=O)Nc2ccc3nc4n(c(=O)c3c2)CCCCC4)cc1 23%, Cc1nn2c(C)c(C(=O)NCCc3ccccc3)cnc2c1-c1ccccc1 8.88%, Cc1ccccc1NC(=O)/C(C#N)=C/c1ccc(Cl)cc1Cl 2.82%, CCc1ccc(NCc2cc3cc4c(cc3n(CC(=O)Nc3ccccc3C)c2=O)OCCO4)cc1 18.2%, Cc1ccc(S(=O)(=O)Cc2nc(-c3ccc(C(=O)NCCCOC(C)C)cc3)oc2C)cc1 11.3%, CCCCCCCN(CC)CCCC(O)c1ccc(NS(C)(=O)=O)cc1 (stereo not given) -2.78%, Cc1ccc2ncc3c(-c4ccc(F)cc4)nn(CC(=O)Nc4ccccc4C)c3c2c1 22.5%, CC(C)c1ccc(N(CC(=O)O)S(=O)(=O)c2ccc3[nH]c(=O)c(=O)[nH]c3c2)cc1 -10.4%, COc1ccc(Br)cc1CNC(=O)CN1C(=O)c2cccnc2Oc2ccc(C)cc21 -7.33%, Cc1ccc2oc(C(=O)Nc3ccc(S(=O)(=O)Nc4nccc(C)n4)cc3)cc(=O)c2c1 -9.82%, COc1ccc(-c2nc3sc(CCNS(=O)(=O)c4ccccc4)c(C)n3n2)cc1 -9.36%, O=C(NCC1CCN(Cc2ccccc2F)CC1)Nc1ccc(F)c(Cl)c1 -26.8%
